Laboratory results: PubChem BioAssay AID488969 (Vanderbilt High Throughput Screening Facility, 2010)
Several values for one entry are separate records, joined by “and”; a condition that tells them apart may be missing. Identical values can stand only once. Whole data set: some 110,000 compounds, median “z-score” near -0.1, cut for the highest 2% near 2. This is one part of the list.

These molecules were tested against Metabotropic glutamate receptor 8 (Rattus norvegicus) (UniProt P70579) (assay: rat mGluR8 modulators via GIRK flux, primary screen, cell-based, thallium flux, HTS (AID 488969)). Conditions: HEK293 rat mGluR8, GIRK (G protein-gated inwardly rectifying potassium channel) thallium flux, FluoZin2; at 10 µM; stronger effect = higher value; submaximal glutamate (EC20) added with thallium.
Chain of UniProt P70579 (P70579 whole entry, looked up): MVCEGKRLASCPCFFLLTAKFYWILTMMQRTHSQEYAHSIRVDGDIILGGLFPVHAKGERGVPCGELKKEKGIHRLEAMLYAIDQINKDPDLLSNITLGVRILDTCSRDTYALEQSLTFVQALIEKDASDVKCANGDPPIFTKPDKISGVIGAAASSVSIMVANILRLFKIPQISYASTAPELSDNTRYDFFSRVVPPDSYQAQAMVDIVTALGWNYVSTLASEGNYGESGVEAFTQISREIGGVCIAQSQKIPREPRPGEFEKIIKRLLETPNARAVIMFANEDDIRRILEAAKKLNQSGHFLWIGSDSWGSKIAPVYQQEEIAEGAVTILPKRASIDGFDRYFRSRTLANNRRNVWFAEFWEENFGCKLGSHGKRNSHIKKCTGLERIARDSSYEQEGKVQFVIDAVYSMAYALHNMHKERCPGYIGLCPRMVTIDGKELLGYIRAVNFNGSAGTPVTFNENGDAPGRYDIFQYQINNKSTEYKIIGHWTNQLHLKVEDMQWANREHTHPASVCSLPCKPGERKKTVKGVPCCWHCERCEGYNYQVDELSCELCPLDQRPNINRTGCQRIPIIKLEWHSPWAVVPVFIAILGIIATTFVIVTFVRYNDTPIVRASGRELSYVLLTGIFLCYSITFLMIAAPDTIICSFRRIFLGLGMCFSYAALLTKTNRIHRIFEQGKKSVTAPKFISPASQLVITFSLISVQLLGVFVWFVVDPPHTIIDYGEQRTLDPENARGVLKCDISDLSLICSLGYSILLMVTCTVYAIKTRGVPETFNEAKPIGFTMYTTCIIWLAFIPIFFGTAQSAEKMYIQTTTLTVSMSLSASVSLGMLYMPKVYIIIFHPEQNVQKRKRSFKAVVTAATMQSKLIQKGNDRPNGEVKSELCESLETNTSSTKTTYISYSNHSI

SMILES	z-score
Cc1ccc(Nc2nc(N)nc(CSC(=S)N3CCN(c4ccccc4)CC3)n2)cc1	-0.237
Cc1cccc(N2C(=O)N(c3ccccc3C)C3CS(=O)(=O)CC32)c1 (stereo not given)	-0.368
CC(C)CCCCCCNC(=S)Nc1ccc(S(=O)(=O)N2CCOCC2)cc1	0.432
O=c1oc2ccccc2c2c1ncn2C1CCCCC1	-0.33
O=C(CSc1ccccc1)Nc1cccnc1	0.182
O=S(=O)(c1cccc(NC(=S)N2CCN(c3cccc(Cl)c3)CC2)c1)C(F)F	-0.0235
COC(=O)Cc1csc(N)n1	-0.232 and 0.0841
CN(C)c1ccc(/C=C/c2ccncc2)cc1	-0.421
CCOc1cc(C(=S)N2CCCC2)ccc1OCC(=O)Nc1c(C)cc(C)cc1C	0.0537
CCn1cc(C(=O)N2CCc3ccccc32)c(=O)c2cc(S(=O)(=O)N3CCCCCC3)ccc21	0.415
Cc1nc(NS(=O)(=O)c2ccccc2)sc1NC(=O)OC(C)C	0.543
CN1CCN(c2cc(=O)n(-c3ccc(Cl)cc3)c(=O)[nH]2)CC1	-0.111
O=C(CSc1nnc2ccccn12)Nc1ncc(Cl)cc1Cl	-0.372
COC(=O)c1ccc(CN(c2ccccn2)S(=O)(=O)c2ccccc2)cc1	-0.465
CCCC(=O)n1nc(-c2ccccc2)nc1SC	-0.399
CCOc1[nH]n(-c2ccc(Cl)cc2)c(=O)c1C=Nc1ccc(C)cc1	-0.176
NC(=O)c1ccccc1NC(=O)CCCN1C(=O)CCC1=O	0.329
COc1ccccc1NC(=O)CN1C(=O)CCS(=O)(=O)c2ccccc21	0.47
O=C(c1ccccc1)c1ccc(OCC(O)CNC2CCCc3ccccc32)cc1 (stereo not given)	0.69
CCCS(=O)(=O)N1CCCC(C(=O)N2CCN(c3ccccn3)CC2)C1 (stereo not given)	-0.17
O=C(NC(=S)NCCc1ccccc1)c1ccccc1	1.9
COc1ccc(Cn2c(-c3ccc(Br)cc3)c[n+]3ccccc23)cc1	-0.171
O=C1c2ccccc2C(O)(Cc2ccccc2)N1C1CCCCC1 (stereo not given)	-0.362
O=C(Cc1cccs1)N/N=C/C=C/c1ccccc1	0.961

SMILES	z-score
Cc1cccc(CSc2nncc(=O)[nH]2)c1	-0.0637
Cc1ccc(C)c2c3c([nH]c12)-c1nonc1CC3	-0.122
COc1ccc(S(=O)(=O)N2CCN(CC(=O)Nc3ccc(F)c(F)c3)CC2)cc1	-0.731
CCOC(=O)c1ccccc1C(=O)N1CCOCCOCCOCC1	0.104
CCOCCCNC(=O)c1c(N)n(-c2ccc(S(N)(=O)=O)cc2)c2nc3ccccc3nc12	-0.293
CCCOc1ccc(Cn2cnc3ccccc32)cc1	0.0859
CCN(CC)S(=O)(=O)c1cccc(NC(=O)COC(=O)c2cc(C)oc2C)c1	1.34
COC(=O)N(C)c1nc2ccccc2s1	0.104
CCOc1ccc(CN(C(=O)c2oc3ccccc3c2C)C2CCS(=O)(=O)C2)cc1 (stereo not given)	-0.167
CCOC(=O)c1c(/N=C/c2cc(OC)cc([N+](=O)[O-])c2O)sc(C)c1C	-0.172
COc1ccc(-c2[nH]ncc2/C=N/NC(=O)c2ccc(Br)cc2)c(OC)c1	-0.904
CCC(C)n1c(-c2ccco2)nc2nc3ccccc3nc21 (stereo not given)	-1.06
CCOC(=O)c1nn(-c2ccc(F)cc2)c2c1CC/C2=C/c1ccccc1	0.739
Cc1ccc2nc(-c3ccc(NC(=O)COC(=O)c4ccc(Br)o4)cc3)sc2c1	-0.168
COc1ccc(C)cc1S(=O)(=O)Nc1ccc(F)c(Cl)c1	-0.385
CC(C)CCNC(=O)c1cnn2c(C(F)(F)F)cc(-c3ccco3)nc12	-1.04
COC(=O)c1ccc(-c2ccco2)n1Cc1ccccc1Cl	-0.376
CC(=O)N(Cc1ccc2c(c1)OCO2)C1CC(=O)N(CCc2ccccc2)C1=O (stereo not given)	1.07
CCCCn1c(NCc2ccccc2NS(=O)(=O)c2ccc(C)cc2)nc2ccccc21	-0.354
Cn1ccnc1SCC(=O)Nc1ccc2ccccc2c1	-0.203
CCC1(C)Cc2c(C#N)c(N)sc(=S)c2CO1 (stereo not given)	-1.08
CCc1ccc(OCCNC(=O)c2cccs2)cc1	0.789
N#CC(C(=O)NC1CC1)c1nc2ccccc2nc1N1CCN(C/C=C/c2ccccc2)CC1 (stereo not given)	-0.502
CCC(C)NC(=O)C1c2ccccc2C(=O)N(c2ccc(OC)cc2)C1c1ccc(OC)cc1 (stereo not given)	-0.411

SMILES	z-score
CCOc1cc(CNCCc2ccc(S(N)(=O)=O)cc2)ccc1OCC(=O)NC1CCCCC1	0.417
CCOC(=O)Nc1c(C(=O)OC)[nH]c2cc(OC)ccc12	0.56
CN=c1scc(C)n1/N=C/c1ccc(O)cc1O	0.0453
Cc1cc(C(=O)CSc2ncn[nH]2)c(C)n1-c1cccc(S(=O)(=O)N2CCOCC2)c1	-0.696
C/C(=N\NC(=O)c1c(Br)c(C)nn1C)c1cccc(NC(=O)c2ccccc2C)c1	-0.644
Cc1nc(NC(=O)/C=C/c2ccccc2)sc1C(=O)Nc1ccc(Cl)cc1	0.0734
Cc1ccccc1-n1nc2c(c1NC(=O)COc1ccc(Cl)cc1)CS(=O)C2 (stereo not given)	-0.623
O=C(Oc1cccc(/C=N/Nc2nc(N3CCOCC3)nc(N3CCOCC3)n2)c1)c1ccco1	-0.508
O=C(O)Cn1nnc(-c2cccs2)n1	0.0931
COc1ccc(CCNC(=O)C2CCCN(S(=O)(=O)c3cccc4nonc34)C2)cc1OC (stereo not given)	-1.46
CCCSC1=C(C#N)C(c2cccs2)C(C(=O)Nc2ccccc2)=C(C)N1 (stereo not given)	-0.638
CS(=O)(=O)Nc1ccc(-c2n[nH]c(=S)n2-c2ccccc2)cc1	0.118
CC1(C(=O)O)CCC(C(=O)NCCc2ccccc2)C1(C)C (stereo not given)	0.0302
O=C(/C=C/c1ccc([N+](=O)[O-])cc1)Nc1cccnc1	0.00268
COc1ccccc1/C=C(\NC(=O)c1ccc(OC)c(OC)c1)C(=O)Nc1cc([N+](=O)[O-])ccc1C	0.194
Cc1cc(C)c(C(N)=O)c(SCC(=O)c2cc(C)c(C)cc2C)n1	-0.0701
O=S(=O)(c1ccc(Cl)cc1)N1c2ccccc2Oc2nc3ccccc3nc21	0.634
COc1cccc(NC(=S)NC2CC(C)(C)NC(C)(C)C2)c1	0.0244
CC(C)(C)NC(=O)Cn1c(SCC(N)=O)nc2ccccc21	0.038
Cc1ccc(CN(N=Nc2nonc2N)c2nonc2N)c(C)c1	-0.197
CN(C)c1cccc(C(=O)Nc2cc(C(F)(F)F)ccc2-n2cnc3ccccc32)c1	0.403
COCCn1c(N)c(S(=O)(=O)c2cccs2)c2nc3ccccc3nc21	0.975
